From PubChem BioAssay AID488969 (Vanderbilt High Throughput Screening Facility, 2010)
Whole data set: some 110,000 compounds, median “z-score” near -0.1, cut for the highest 2% near 2. This is one part of the list.

target: Metabotropic glutamate receptor 8 (Rattus norvegicus) (UniProt P70579); experiment: mGluR8 Gi/Go-coupled signaling modulation – cell-based, rat, thallium flux, HTS, primary screen (AID 488969); conditions: HEK293 rat mGluR8, GIRK (G protein-gated inwardly rectifying potassium channel) thallium flux, FluoZin2; at 10 µM; stronger effect = higher value; submaximal glutamate (EC20) added with thallium
Sequence of UniProt P70579 (P70579 whole entry, looked up): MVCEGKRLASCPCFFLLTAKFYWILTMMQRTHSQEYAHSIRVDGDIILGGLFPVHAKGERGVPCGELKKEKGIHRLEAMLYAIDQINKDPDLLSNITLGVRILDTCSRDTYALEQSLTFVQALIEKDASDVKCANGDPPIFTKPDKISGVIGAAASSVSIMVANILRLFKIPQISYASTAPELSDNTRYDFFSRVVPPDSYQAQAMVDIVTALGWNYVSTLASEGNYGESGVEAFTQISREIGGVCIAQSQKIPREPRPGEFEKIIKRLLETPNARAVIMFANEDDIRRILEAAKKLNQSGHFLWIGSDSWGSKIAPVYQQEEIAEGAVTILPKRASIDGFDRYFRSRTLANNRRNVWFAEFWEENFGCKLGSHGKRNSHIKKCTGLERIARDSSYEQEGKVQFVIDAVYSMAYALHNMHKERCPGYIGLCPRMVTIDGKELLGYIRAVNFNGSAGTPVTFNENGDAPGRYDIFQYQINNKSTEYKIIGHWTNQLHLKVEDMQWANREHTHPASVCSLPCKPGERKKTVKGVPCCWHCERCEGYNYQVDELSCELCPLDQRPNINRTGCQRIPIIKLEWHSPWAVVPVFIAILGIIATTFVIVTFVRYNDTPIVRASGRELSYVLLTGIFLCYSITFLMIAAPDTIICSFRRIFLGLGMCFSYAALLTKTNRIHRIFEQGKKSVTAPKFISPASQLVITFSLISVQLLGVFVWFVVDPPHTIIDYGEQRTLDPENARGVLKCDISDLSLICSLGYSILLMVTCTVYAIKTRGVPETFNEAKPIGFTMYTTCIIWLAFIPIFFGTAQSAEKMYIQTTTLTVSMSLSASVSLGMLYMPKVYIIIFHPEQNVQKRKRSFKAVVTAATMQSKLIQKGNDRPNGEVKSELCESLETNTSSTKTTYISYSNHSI

SMILES	z-score
CCCNC(=O)CC1Sc2ccccc2NC1=O (stereo unspecified)	-0.158
COc1ccc(NC(=O)C(NC(=O)c2ccc(=O)[nH]c2)c2ccc(C)cc2)cc1 (stereo unspecified)	-0.215
CCCc1nc(SCc2ccccc2Cl)n[nH]1	-0.169
O=c1c2ccccc2c(-c2ccc(Cl)cc2)nn1-c1ccccc1	-0.762
CCCCCCCCCc1nc2sc3c(c2c(=O)n1NC(=O)c1ccccc1[N+](=O)[O-])CC(C)(C)OC3	-0.0955
Cc1cccc(-c2onc3ccc(C4(C)OCCO4)cc23)c1	-0.119
COc1ccc(NS(=O)(=O)c2ccc(NC(=S)NC(=O)C(C)C)cc2)cc1	-0.243
N#Cc1ccc(CSc2ncnc3c2cnn3Cc2ccccc2)cc1	0.066
CSc1ncccc1C(=O)OCc1ccccc1F	-0.548
COc1ccc(/C=N\NC(=O)COc2ccc(Cl)cc2Cl)c(C(=O)O)c1OC	-0.177
O=C(Cn1nnc2c(cnn2-c2ccccc2)c1=O)N1CCN(c2ccccc2F)CC1	-0.639
COC(=O)/C=C/C(=O)Nc1cccc(C(F)(F)F)c1	0.831
Cc1c(-c2cccs2)[n+](=O)c2c(n1[O-])CCC2	0.00683
Cc1ccc(C(=O)Nc2ccc(N3CCOCC3)nc2)cc1	-0.252
CSc1nc2c(c(=O)n1-c1ccc(F)cc1)SCC2	-0.287
CCOC(=O)C1=C(C)NC(=O)C(C#N)C1c1ccco1 (stereo unspecified)	-0.308
Cc1[nH]n(-c2ccccc2)c(=O)c1/C=N/NC(=O)COc1ccccc1[N+](=O)[O-]	-0.522
COc1ccccc1NC(=O)c1sc2ncn(Cc3cccc4ccccc34)c(=O)c2c1C	-0.232
COc1cc(C(C(=O)NC(C)(C)C)N(C(=O)CNC(=O)c2cccs2)c2ccc(C(C)C)cc2)cc(OC)c1OC (stereo unspecified)	-0.0508
CCOC(=O)C1CCCN(C/C(O)=C(\C#N)c2nc(-c3ccccc3)cs2)C1 (stereo unspecified)	0.962
Cn1cc(SCC(=O)Nc2ccc3c(c2)OCO3)c2ccccc21	0.236
COc1ccc2c(CC(=O)N3CCc4ccccc43)coc2c1	-0.061
CCC1CCCCN1C(=S)Nc1ccc(OC(F)F)cc1 (stereo unspecified)	-0.372
CCOc1cc(CNc2ncc(-c3ccc(OC)cc3)n2C)ccc1O	-0.622

SMILES	z-score
COCCCNCCCOc1ccc(C)cc1Br	-0.00352
N/C(=N\OC(=O)CC1CCCCC1)c1ccccc1	-0.155
CCCNCc1cc(OCC)c(OCC(N)=O)cc1Br	-0.0317
Cc1noc(C)c1C(=O)N1CCN(c2ncccn2)CC1	0.134
Cc1ccc(O)c(NC(=S)NC(=O)c2ccc(-c3ccc(Cl)cc3)o2)c1	0.233
O=C(OC1CCOC1=O)c1ccc(S(=O)(=O)N2CCCCCC2)cc1 (stereo unspecified)	0.237
O=C(OCc1nc2scc(-c3ccccc3)c2c(=O)[nH]1)c1cc(Cl)ccc1[N+](=O)[O-]	-0.199
CCOC(=O)c1sc2ccccc2c1NC(=O)c1coc2ccccc2c1=O	-0.353
CC1CN(c2nc3ccccc3nc2C(C#N)C(=O)NCc2ccc3c(c2)OCO3)CC(C)O1 (stereo unspecified)	-0.699
CCOC(=O)c1c(C)[nH]c(C(=O)COC(=O)c2ccncc2)c1C	-0.607
CC(C)NC(=O)NC(=O)COC(=O)C1CCCN1C(=O)c1cccs1 (stereo unspecified)	-0.186
COC(=O)c1c(O)c2ccccc2[nH]c1=O	0.0922
CSc1cccc(NC(=O)C2CCCN(S(=O)(=O)c3ccc(F)cc3)C2)c1 (stereo unspecified)	-0.0615
S=c1[nH]nc(Cc2ccccc2)n1Cc1ccco1	0.201
CC(/C=N/NC(=O)c1ccc2nc(C)[nH]c2c1)=C\c1ccccc1	1.15
O=S(=O)(NCc1ccccc1Br)c1cccs1	0.562
O=C1CSC(=O)N1CC(O)COc1ccc(Cl)cc1 (stereo unspecified)	1.4
CCc1[nH]nc2c1C1(CCN(C(=O)c3ccccc3)CC1)C(C#N)=C(N)O2	-0.41
Clc1ccc(CSc2nnc(-c3ccc4c(c3)OCO4)o2)cc1	-0.0552
CCOc1ccccc1N1CCN(C(=O)c2c(-c3ccccc3Cl)noc2C)CC1	0.339
Oc1ccccc1N1CCN(C(=S)NCCc2ccccc2)CC1	-0.164
Cc1nn(Cc2c(F)c(F)c(F)c(F)c2F)c(C)c1NC(=O)c1c([N+](=O)[O-])c(C)nn1C	-0.145
CCCCn1c2c(c3ccccc31)CCc1nonc1-2	-0.191
O=C(CSCc1nc2ccccc2[nH]1)Nc1ccccc1	-0.126

SMILES	z-score
CC(=O)NCCC(=O)Nc1sc2c(c1-c1nc3ccccc3[nH]1)CCCC2	-0.454
O=C(CNC(=O)c1ccccc1F)N/N=C/c1cc(Br)ccc1OCc1ccccc1	-0.402
C(=N\c1ncnc2sccc12)/NOCc1ccccc1	0.0507
CCCCC(=O)Nc1sc(C(=O)N(CC)CC)c(C)c1C(=O)OC	-0.324
CC1(C)CC(=O)C2=C(C1)OC(N)=C(C#N)C2C1C=CCCC1 (stereo unspecified)	-0.228
COc1ccc(OC)c(NC(=O)COC(=O)CCCN2C(=O)c3ccccc3C2=O)c1	-0.258
Cc1cc(C(=O)OCC(=O)NCCc2ccccc2)c(C)o1	-0.313
CC(C)(C)C(=O)CN1C(=O)C2(OCCO2)c2ccccc21	0.508
O=C(N/C(=C/c1cccnc1)C(=O)N1CCOCC1)c1ccccc1Br	1.4
COc1ccc(-c2cc(-c3ccccc3)nc(SCC(=O)Nc3nccs3)c2C#N)cc1	-0.519
CCCNS(=O)(=O)c1ccc(CCC(=O)N2CCN(c3ccc(OC)cc3)CC2)cc1	-0.229
CC(Sc1ccc(Cl)cc1)C(=O)Nc1ccc(S(=O)(=O)N2CCOCC2)cc1 (stereo unspecified)	0.967
C/C(=N/NC(=O)CNC(=O)c1ccccn1)c1ccccc1	0.00855
Cc1ccc(C2NNC(=O)C2NC(=O)c2ccccc2)cc1 (stereo unspecified)	0.059
CCn1c(CNC(=O)COc2ccc(C(C)C)cc2)nnc1SCC(=O)Nc1ccc(F)cc1	-0.592
CN(C)CCN1CCc2ccccc21	1.3
Cc1nn(-c2ccccc2)c(C)c1NC(=O)CCl	-0.0162
COCCNC(=O)c1c(N)n(CCC2=CCCCC2)c2nc3ccccc3nc12	-0.122
CN1C(=O)/C(=C/c2cc(N=Nc3ccccc3)ccc2O)SC1=S	1.04
O=C(NCc1ccco1)c1cc2n(n1)C(C(F)(F)F)CC(c1ccc(F)cc1)N2 (stereo unspecified)	-0.0373
Cc1cc(NS(=O)(=O)c2ccc(-c3ccccc3)cc2)no1	-0.115
c1ccc2cc3[nH]c(CN4CCOCC4)nc3cc2c1	0.139
CCC1SC2=NCN(c3ccccc3)CN2C1=O (stereo unspecified)	-0.157
